# Experimental data from article PMC4336329 (PLoS ONE, 2015).
# Hit rate of the full screen: of about 310,000 compounds, about 14,000 (4.5%) showed an effect of 50% or more. The effect is printed as a negative number. Some of the results follow.
# Target: human ether-à-go-go-related gene (hERG) potassium channel (human, UniProt Q12809)
# Assay: primary screen, population patch clamp on CHO cells stably expressing hERG
# 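Also: peak tail current of the secondary pulse compared with the same well before compound.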
# Chain of human ether-à-go-go-related gene (hERG) potassium channel (Q12809 whole entry, looked up): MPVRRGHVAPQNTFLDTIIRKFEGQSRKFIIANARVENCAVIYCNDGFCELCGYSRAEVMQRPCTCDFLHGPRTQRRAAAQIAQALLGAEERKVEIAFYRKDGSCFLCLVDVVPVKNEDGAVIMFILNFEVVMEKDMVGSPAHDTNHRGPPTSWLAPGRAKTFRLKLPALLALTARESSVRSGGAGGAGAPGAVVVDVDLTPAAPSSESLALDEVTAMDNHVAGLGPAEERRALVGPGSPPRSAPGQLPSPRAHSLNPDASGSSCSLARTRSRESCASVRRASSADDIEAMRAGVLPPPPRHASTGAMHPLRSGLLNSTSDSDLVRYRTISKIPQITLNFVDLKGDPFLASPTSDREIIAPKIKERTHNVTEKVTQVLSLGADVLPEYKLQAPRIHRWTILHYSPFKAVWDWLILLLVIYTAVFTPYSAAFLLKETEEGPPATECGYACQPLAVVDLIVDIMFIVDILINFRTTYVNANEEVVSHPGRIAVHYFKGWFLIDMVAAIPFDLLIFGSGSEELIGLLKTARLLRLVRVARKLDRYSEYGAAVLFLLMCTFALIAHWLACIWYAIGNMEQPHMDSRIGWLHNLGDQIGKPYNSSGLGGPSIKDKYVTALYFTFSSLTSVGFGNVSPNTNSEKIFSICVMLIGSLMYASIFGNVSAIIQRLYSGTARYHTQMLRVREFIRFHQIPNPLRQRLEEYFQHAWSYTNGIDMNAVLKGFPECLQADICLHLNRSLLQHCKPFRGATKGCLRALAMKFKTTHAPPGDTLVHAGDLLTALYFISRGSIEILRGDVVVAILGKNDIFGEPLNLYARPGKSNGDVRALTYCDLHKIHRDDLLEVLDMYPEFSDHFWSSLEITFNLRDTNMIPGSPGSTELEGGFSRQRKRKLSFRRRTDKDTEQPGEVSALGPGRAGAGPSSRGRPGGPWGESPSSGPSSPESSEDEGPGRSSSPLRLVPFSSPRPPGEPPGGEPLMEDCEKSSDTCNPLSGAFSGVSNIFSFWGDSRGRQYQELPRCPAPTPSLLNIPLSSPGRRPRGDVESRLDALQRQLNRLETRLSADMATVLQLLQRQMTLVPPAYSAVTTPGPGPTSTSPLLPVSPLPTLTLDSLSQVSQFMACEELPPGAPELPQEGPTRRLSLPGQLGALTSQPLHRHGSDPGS
row,SMILES,"hERG current change (%, negative = inhibition) at 10uM"
1,Cc1nc2ccccc2cc1C(=O)Nc1ccccc1Cl,-2.31%
2,COc1ccc(N2C(=O)CC(NCCNc3ccc([N+](=O)[O-])cn3)C2=O)cc1 (centres unmarked),-34%
3,O=S(=O)(NNc1ncc(C(F)(F)F)cc1Cl)c1ccccc1,11.3%
4,O=C(COC(=O)c1cnccn1)c1ccc(Cl)c([N+](=O)[O-])c1,4.23%
5,Cn1c(=O)c2c(ncn2CC(=O)N/N=C/C(Br)=C/c2ccccc2)n(C)c1=O,-9.23%
6,CN1CCCC1=Nc1c2c(nc3ccccc13)N(C)CC2,-0.97%
7,Cc1ccc(C(=O)Cc2ccccc2)o1,13.3%
8,O=C(Cn1ncc2c(=O)oc3ccccc3c21)N1CCCN(Cc2ccccc2F)C1,-25.5%
9,Cc1ccc(C2(C)NC(=O)N(CC(=O)N(C)CC(=O)Nc3cccc(F)c3)C2=O)cc1 (centres unmarked),-2.36%
10,CCC(CC)C(=O)N1CCN(Cc2ccc3c(c2)OCO3)CC1,6.17%
11,CC(C)N(C(=O)Cn1cc(S(=O)(=O)CC(=O)Nc2ccccc2)c2ccccc21)C(C)C,-17.9%
12,O=C(CNC(=S)N(Cc1ccccc1Cl)C1CCCC1)NCCCN1CCOCC1,7.4%
13,O=C(CCc1nnc(CCCCc2ccccc2)o1)N1CCCC(O)C1 (centres unmarked),-6.36%
14,O=C(CCCOc1ccccc1)Nc1ncccn1,26.3%
15,N#Cc1c[nH]n2c(=O)cc(Cc3ccccc3)nc12,19.9%
16,O=C(O)C(=O)O.c1cncc(CNCCc2ccc3c(c2)OCO3)c1,8.84%
17,COc1ccccc1NC(=O)CN(c1ccccc1)S(=O)(=O)c1ccccc1,-4.39%
18,Cc1ccccc1Nc1ccc([N+](=O)[O-])cn1,9.97%
19,NC(=O)CSc1nnc2ccc(-c3ccc(Cl)cc3)nn12,-4.22%

row,SMILES,"hERG current change (%, negative = inhibition) at 10uM"
1,CCN1CCN(S(=O)(=O)c2ccc(Cl)c(C(=O)NC3CCCCC3)c2)CC1,-30.4%
2,Cl.Nc1nonc1C(=O)N/N=C/c1cc(Br)ccc1O,23.6%
3,COc1ccc(C)cc1NC(=O)C(OC(=O)c1cnc(C)cn1)c1ccccc1 (centres unmarked),-48.8%
4,COc1ccc(CC(=O)N/N=C(\C)c2cccs2)cc1OC,10.3%
5,CCOC(=O)C1CCN(C(=S)Nc2cccc(C)c2)CC1,-1.7%
6,Cc1ccc(S(=O)(=O)N(C)C)cc1NC(=O)COC(=O)c1ccc2ccccc2n1,-6.54%
7,CCc1nnc(NC(=O)c2ccc(S(=O)(=O)N(CC)CC)cc2)s1,10.5%
8,CC(C)Oc1ccc(C(=O)N(CN2CCCC2=O)c2ccc(F)cc2)cc1,4.39%
9,COc1ccc(C(C(=O)NCC2CCCO2)N(Cc2cccs2)C(=O)c2snc(C(N)=O)c2N)cc1OC (centres unmarked),24.1%
10,Nc1nc(/C=C/c2cccnc2)nc(-c2ccccc2O)n1,11.2%
11,COc1ccc(CCNC(=O)Cc2ccc([N+](=O)[O-])cc2)cc1OC,-11.6%
12,Cc1cccn2c(CNC3CCCc4ccccc43)c(C(=O)N3CCCCC3)nc12 (centres unmarked),-17.3%
13,Cc1nc2nc(-c3ccccc3)nn2c(C)c1C,-10.6%
14,CC1OC(C[N+](C)(C)C)CC1O.[Cl-] (centres unmarked),5.35%
15,CCOC(=O)N1CCN(C(=O)CN(C)S(=O)(=O)c2ccc3c(c2)c(=O)n(C)c(=O)n3C)CC1,33.9%
16,N#Cc1c(N)sc(=S)c2c1CCN(Cc1ccccc1)C2,-5.46%
17,COc1ccc2cc3cc(C(=O)NCCN4CCc5ccccc5C4)sc3nc2c1,-32.9%
18,O=C(/C=C/c1ccc(Cl)cc1)NCc1ccco1,-7.54%
19,CN1CCc2c(OCC(=O)N3CCC(Cc4ccccc4)CC3)cccc2C1=O,-43.8%

row,SMILES,"hERG current change (%, negative = inhibition) at 10uM"
1,CN(C)Cc1ccccc1CCc1ccccc1.Cl,-13%
2,CNC(=O)C1=C(C)n2c(nc3ccccc32)NC1c1ccc(OC)cc1 (centres unmarked),-5.06%
3,Cc1cc(C)c(S(=O)(=O)N2CCCCC2CCNC(=O)C(=O)NCC2CCCO2)c(C)c1 (centres unmarked),-16.5%
4,O=C(COc1ccc(Cl)cc1Cl)NC(=S)N1CCCc2ccccc21,14.5%
5,c1cnc2nc(-c3ccc4c(c3)OCO4)cn2c1,-0.0906%
6,CC(C)(C)NC(=O)C(=O)NN=C1CCCCCCC1,19.1%
7,O=C(CSc1nnc(-c2ccc(Br)cc2)o1)N1CCN(C(=O)c2ccco2)CC1,-54.6%
8,CN(C)S(=O)(=O)c1cccc(C(=O)Nc2ccccc2N2CCCCC2)c1,5.55%
9,Cc1ccc(C(=O)c2cc3ccccc3o2)cc1[N+](=O)[O-],15.2%
10,Cc1cccc(N(CC(=O)N/N=C/c2ccc(OCC(=O)NCc3ccco3)cc2)S(C)(=O)=O)c1C,4.14%
11,O=C(Cn1cnc2ccccc21)N/N=C/c1cccnc1,11%
12,CN(c1ccc([N+](=O)[O-])cc1C(N)=O)C1CCCCC1,-0.575%
13,CCOc1ccc(NC(=S)N(CCOC)C(C)c2cccnc2)cc1 (centres unmarked),9.3%
14,CCOC(=O)CC1COCCN1Cc1cn[nH]c1-c1cc(OC)c(OC)c(OC)c1 (centres unmarked),-10.5%
15,COc1cc(CN(CC2CCCO2)C(=O)c2ccco2)cc(OC)c1OC (centres unmarked),8.74%
16,COCC1=C(C(=O)OC(C)OC(=O)OC(C)C)N2C(=O)[C@@H](NC(=O)/C(=N\OC)c3csc(N)n3)[C@H]2SC1 (some centres unmarked),-4.35%
17,COc1ccc(CNc2oc(COc3ccccc3)nc2C#N)cc1,-7.81%
18,Cc1cccc2c1N(CCCOc1ccccc1)C(=O)C2=O,-1.77%
